Measured values published in PubChem BioAssay AID463173 (ICCB-Longwood Screening Facility, Harvard Medical School, 2010).
Among all 52,000 compounds or so, about 4,300 (8.3%) were called active. No stated cut-off is given here; in the data, active means survival mostly below about 52% (no sharp cut-off); inactive means mostly above about 56%. Some of the results follow.

Each compound was assayed on DeltatarO mutant (assay: S. aureus survival, RN4220 and DeltatarO strains – OD600, teichoic acid synthesis inhibitors, primary screen (AID 463173)). Details: S. aureus RN4220 wild type/DeltatarO growth, OD600, 18 h, stronger effect = lower value, screened at 18.75 µg/mL (by protocol).
`CCCc1cc(=O)[nH]c(SCc2nc(-c3ccccc3F)no2)n1` was tested, and the survival was inactive: 131%. For `COc1ccc(-n2c(=O)c3c4c(sc3n3c(SC(C)C)nnc23)COC(C(C)C)C4)cc1` (centres undefined), the survival was inactive: 66%. For `CC1=[N+](CCC#N)CC(C)(C)C1`, the survival was inactive: 111%. For `CCCn1c(=NC(=O)c2c(-c3c(F)cccc3Cl)noc2C)c(C(=O)OCC)cc2c(=O)n3ccccc3nc21`, the survival was inactive: 164%. For `C=CCn1c(N)c(C(N)=O)sc1=S`, the survival was inactive: 81%. For `CC(=O)c1cccc(Nc2ccc3cc(S(=O)(=O)N4CCCC4)ccc3n2)c1`, the survival was inactive: 101%. In the case of `COc1ccc(NC(=O)c2cc(=O)c3ccc(C)c(C)c3o2)cc1Cl`, the survival is reported as inactive: 65%. For `Cc1ccc(-n2ncc(C(=O)NCCN3CCc4ccccc4C3)c2C2CCNCC2)cc1C`, the survival was inactive: 95%. In the case of `CCOc1ccccc1NC(=O)c1nn(C)c2c1CSc1ccccc1-2`, the survival is reported as inactive: 78%. In the case of `COc1ccc(C)cc1NC(=O)CN1C(=O)COc2ccc(S(=O)(=O)NC3CCCC3)cc21`, the survival is reported as inactive: 87%. `CCOc1ccc(-c2csc(-c3c(N)c(C(=O)c4ccc5c(c4)OCO5)n4ccccc34)n2)cc1` was tested, and the survival was inactive: 104%. For `Cn1nc(-c2ccc(N3CCCCC3)c(NC(=O)c3ccc(Cl)cc3)c2)c2ccccc2c1=O`, the survival was inactive: 66%. In the case of `CN(C)CCNC(=O)c1ccc(Cn2c(=O)c3cccn3c3cccnc32)cc1`, the survival is reported as inactive: 54%. With `Cc1ccc(CC(=O)NC2CCSC2=O)cc1` (centres undefined) the survival was inactive: 104%. In the case of `Cc1cccc(NC(=O)c2oc3ccc(S(=O)(=O)N4CCC5(CC4)OCCO5)cc3c2C)c1C`, the survival is reported as inactive: 116%. `Cc1cc(Nc2ccccc2O)c2ccccc2n1` was tested, and the survival was inactive: 103%. For `CC(=O)c1ccc(N2CCN(c3ncnc4c3cnn4C)CC2)cc1`, the survival was inactive: 62%. With `Cc1ccc2c(c1)-c1ncc(C(=O)c3cc(Br)ccc3O)cc1CO2` the survival was inactive: 62%. In the case of `COc1ccc(-n2nc(C(=O)Nc3cccc(C)n3)c3c4ccccc4n(C)c3c2=O)cc1`, the survival is reported as inactive: 63%. With `CC1CCN(S(=O)(=O)c2ccc3c(c2)N(CC(=O)NCCCN2CCCC(C)C2)C(=O)CS3)CC1` (centres undefined) the survival was inactive: 75%. `Cc1cccc(CNC(=O)c2ccc(NC(=O)N3CCSc4ncccc43)cc2)c1` was tested, and the survival was inactive: 72%. `CCOc1ccc(NC(=O)C(C)Sc2nc3ncccc3o2)cc1` (centres undefined) was tested, and the survival was inactive: 90%. With `Cc1cc(C)cc(NC(=O)Cn2c(=O)n(Cc3ccc4c(c3)OCO4)c(=O)c3oc4ccccc4c32)c1` the survival was inactive: 58%. In the case of `CC(C)C(c1nnnn1C1CCCC1)N1CCN(C(=O)c2ccco2)CC1` (centres undefined), the survival is reported as inactive: 86%. In the case of `N#CCSc1nc2ccccc2c(=O)n1-c1ccccc1`, the survival is reported as inactive: 101%. In the case of `Cc1cccc(C(=O)Nc2nc(-c3nnn(-c4cc(C)ccc4C)c3C)ns2)c1`, the survival is reported as inactive: 94%. With `O=C(c1cnn2c1NC(c1cccs1)CC2C(F)(F)F)N1CCSCC1` (centres undefined) the survival was inactive: 74%. With `O=C(Cn1c(=O)n(Cc2nc(-c3ccccc3)no2)c(=O)c2cc3c(cc21)OCO3)Nc1cccc(C(F)(F)F)c1` the survival was inactive: 91%. `COc1ccc(-c2ccc(CCC(=O)O)n2-c2cc(Cl)ccc2O)cc1` was tested, and the survival was inactive: 52%. `CCOC(=O)c1c(C)[nH]c(C)c1S(=O)(=O)N(C)CC(=O)Nc1cccc(C(F)(F)F)c1` was tested, and the survival was inactive: 92%. `CCOC(=O)C1CCN(C(=O)Cn2ncc3c([nH]c4ccccc43)c2=O)CC1` was tested, and the survival was active: 25%. `COc1cccc(C2CC(=O)Nc3c2c(=O)n(C)c2nc4ccccc4n32)c1` (centres undefined) was tested, and the survival was inactive: 67%. For `CSc1cccc(NC(=O)CN2C(=O)COc3ccc(S(=O)(=O)N4CCC(C)CC4)cc32)c1`, the survival was inactive: 88%. With `Cc1ccc(C)c(NC(=O)Cn2ccn(-c3ccc(F)cc3)c(=O)c2=O)c1` the survival was inactive: 104%. With `Cc1cc(Cl)nc(SCC(=O)c2ccccc2)n1` the survival was inactive: 50%. With `Cc1ccccc1CNC(=O)c1ccc2[nH]c(C)c(C)c2c1` the survival was inactive: 98%. With `COCCN(C(C)=O)c1nnc(-c2cccnc2)s1` the survival was inactive: 88%. For `CC(C)(C)c1ccccc1NC(=O)c1cnn2c(C(F)F)cc(-c3ccccc3)nc12`, the survival was inactive: 64%. With `C=CCSc1nc2ccccc2c(=O)n1CC1CCCO1` (centres undefined) the survival was inactive: 80%. For `CN(C)S(=O)(=O)c1ccc(S(=O)(=O)N(CC(=O)Nc2ccccc2)C2CC2)cc1`, the survival was inactive: 94%. `COc1ccccc1NC(=O)CSc1oc(-c2ccc(F)cc2)nc1S(=O)(=O)c1ccc(Br)cc1` was tested, and the survival was active: 49%. With `Cn1c(=O)c2c(SCC(=O)Nc3ccc(F)cc3F)nc(C3CCCC3)nc2n(C)c1=O` the survival was inactive: 93%. With `CCCCCOc1ccc(C(CC(N)=O)CC(=O)O)cc1` (centres undefined) the survival was inactive: 96%. In the case of `Cc1cc(N2CCC(C(=O)NCCC(C)C)CC2)n2nc(C)c(-c3ccc(Cl)cc3)c2n1`, the survival is reported as inactive: 82%. For `Cc1ccc(CN(C(=O)c2ccccc2[N+](=O)[O-])c2ccccn2)cc1`, the survival was inactive: 54%. For `CCC(C)NC(=O)Cn1c(-c2cccs2)cc2cc(Cl)ccc21` (centres undefined), the survival was inactive: 94%. With `CCOC(=O)c1c(NC(=O)c2cc(-c3ccc(Cl)cc3)on2)sc(C)c1C` the survival was inactive: 68%. `COc1ccc(CCNC(=O)C2CCCN2C(=O)NC2CCCCC2)cc1OC` (centres undefined) was tested, and the survival was inactive: 90%. `Cc1ccc(-c2nc3c4ccccc4n(CC(=O)N4CCN(c5ccc(F)cc5)CC4)c(=O)n3n2)cc1` was tested, and the survival was inactive: 74%. `Cc1cc(C)cc(Nc2cc(C)nc3nc(-c4ccco4)nn23)c1` was tested, and the survival was inactive: 94%. For `Cc1ccc(C(CC(=O)Nc2ccc(F)c(Cl)c2)N2Cc3ccccc3C2=O)cc1` (centres undefined), the survival was inactive: 88%. `CC(C)c1ccc(NC(=O)CCn2c(=O)c3cccn3c3ccccc32)cc1` was tested, and the survival was inactive: 57%. With `COc1cccc(CNCCSc2nnnn2C)c1OCc1ccc(F)cc1` the survival was inactive: 52%. In the case of `Cc1ccc(N2CC(NC(=O)C3CC3)CC2=O)cc1C` (centres undefined), the survival is reported as inactive: 94%. `CCOC(=O)c1ccn(-c2nc(-c3cccc(OC)c3)cc(C(F)(F)F)n2)n1` was tested, and the survival was active: 18%. With `Cc1nc2sccn2c(=O)c1S(=O)(=O)Nc1ccc(N2CCN(C(=O)C(C)C)CC2)cc1` the survival was inactive: 89%. For `COc1cc(C(=O)Nc2nonc2-c2ccc(Cl)cc2)cc(OC)c1OC`, the survival was inactive: 49%. In the case of `CCOC(=O)c1[nH]c(C)c(CCC(=O)Nc2ccc(Br)c(C)c2)c1C`, the survival is reported as inactive: 81%. In the case of `Cc1ccc(Cl)cc1NC(=O)Cn1ncc2c(C)n(Cc3ccccc3F)c(C)c2c1=O`, the survival is reported as inactive: 52%. For `CC(C)(C)NC(=O)c1ccc2nc(CCc3ccccc3)oc2c1`, the survival was inactive: 57%. For `CC1CN(C(=O)CCC(=O)NCc2ccccc2)c2cc(Cl)ccc2O1` (centres undefined), the survival was inactive: 74%. For `COc1ccc(-c2nc(-c3ccccc3)c(-c3ccc(F)cc3)[nH]2)c(OC)c1C`, the survival was active: 5%. In the case of `Cc1cc(C)cc(N2C(=O)CCSC23C(=O)N(Cc2ccccc2)c2ccccc23)c1` (centres undefined), the survival is reported as inactive: 67%. In the case of `CCOc1ccc(CCNC(=O)c2ccc3c(c2)sc2nc(-c4ccc(F)cc4)cn23)cc1OCC`, the survival is reported as active: 42%. In the case of `O=S(=O)(NCCc1csc2nc(-c3ccc(F)cc3)nn12)c1ccc(Oc2ccccc2)cc1`, the survival is reported as inactive: 88%. With `Cc1ccc(C2C=C(c3ccc(Cl)cc3)Nc3nc(NC(=O)c4ccco4)nn32)cc1` (centres undefined) the survival was inactive: 67%. For `Cc1ccc(C)c(N2CCN(S(=O)(=O)c3ccc4c(c3)OCCO4)CC2)c1`, the survival was inactive: 76%. In the case of `CCCC12CN3CC(CCC)(CN(C1)C3c1c(C)[nH]c(=O)[nH]c1=O)C2=O` (centres undefined), the survival is reported as inactive: 109%. For `O=C(Nc1ccc(F)cc1F)N1CCN(c2ccc(Cl)c(Cl)c2)CC1`, the survival was active: 48%. With `CCc1nn(Cc2c(C)cc(C)cc2C)c(=O)c2cc3cc(C)ccc3n12` the survival was inactive: 88%. For `Cn1nnnc1SCCCNCc1cc(Cl)ccc1OCc1ccccc1F`, the survival was inactive: 70%. For `Cc1sc2ncnc(SCC(N)=O)c2c1C`, the survival was inactive: 115%. `Cc1ccc(NC(=O)Cn2cnc3sc(C)c(S(=O)(=O)N4CCN(c5ncccn5)CC4)c3c2=O)cc1F` was tested, and the survival was inactive: 68%. `Cc1cccc(N2CCN(S(=O)(=O)c3c(C(=O)N4CCC(C)CC4)c(C)n(C)c3C)CC2)c1C` was tested, and the survival was inactive: 89%. In the case of `COc1ccc(NC(=O)CSC2=Nc3ccccc3C3=NC(CC(=O)NCc4ccc5c(c4)OCO5)C(=O)N23)cc1` (centres undefined), the survival is reported as inactive: 81%. For `CC1CCN(C(=O)c2cc3n(n2)C(C(F)(F)F)CC(c2ccco2)N3)CC1` (centres undefined), the survival was inactive: 81%. `CCOc1ccc(C(c2c(O)cc(C)n(Cc3ccco3)c2=O)N2CCN(c3ccccc3)CC2)cc1` (centres undefined) was tested, and the survival was inactive: 75%. In the case of `CCCc1cnc2c(c1SCC(=O)Nc1ccccc1F)c(=O)n(C)c(=O)n2C`, the survival is reported as inactive: 119%. In the case of `CCOC(=O)c1cnc(SC)nc1Nc1ccccc1`, the survival is reported as inactive: 84%. With `Cc1cccc(CNC(=O)C2CCN(S(=O)(=O)c3ccc4c(c3)CCCN4C(=O)C3CCC3)CC2)c1` the survival was inactive: 70%. `CCn1c2c(c(=O)n3ncc(C(=O)Nc4ccc(Cl)cc4C)c13)CN(Cc1ccc(OC)cc1)CC2` was tested, and the survival was inactive: 87%. `Brc1cccc(-c2nnn3c2nc(N2CCCCC2)c2ccccc23)c1` was tested, and the survival was inactive: 62%. `Cc1ccc2nc3c(c(Nc4ccc(C)c(C)c4)c2c1)CCC3` was tested, and the survival was active: 38%. With `O=C(CNS(=O)(=O)c1cccs1)N1CCN(c2ccccc2F)CC1` the survival was inactive: 51%. For `Cc1ccc(F)cc1S(=O)(=O)N1CCC(c2nc3ccccc3s2)CC1`, the survival was inactive: 89%. With `COc1ccc(CCNC(=O)CCCCn2c(=O)c3ccccc3n(Cc3ccccc3)c2=O)cc1OC` the survival was inactive: 88%. For `Fc1ccccc1N1CCN(c2ncnc3c2nc2n3CCCC2)CC1`, the survival was inactive: 84%. For `Clc1cccc(-n2ncc3c(NC4CCCCCC4)ncnc32)c1`, the survival was inactive: 91%. With `CCOC(=O)c1ccc(NC(=O)CSc2ncc(S(=O)(=O)c3ccc(C)c(Cl)c3)c(=O)[nH]2)cc1` the survival was inactive: 76%.
